The list shows a part of the results.

What all share (test): glycan array binding signal (z-score within array); higher = stronger binding
Conditions in all cases: glycan notation: IUPAC condensed, linker removed

Assay [1] addresses Gal(b1-4)GlcNAc(b1-3)Gal(b1-4)GlcNAc(b1-3)Gal(b1-4)GlcNAc(b1-2)Man(a1-3)[Gal(b1-4)GlcNAc(b1-3)Gal(b1-4)GlcNAc(b1-3)Gal(b1-4)GlcNAc(b1-2)Man(a1-6)]Man(b1-4)GlcNAc(b1-4)GlcNAc. The essentials: (§1)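 The binding signal is a Z-score computed within each array and averaged over linkers. Arrays of the same protein sequence at different concentrations or buffers were also averaged together. Data originate from 3228 arrays in the Consortium for Functional Glycomics database, kept only where the protein sequence was available.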

For assay [2], the target named is Gal(b1-4)GlcNAc(b1-3)Gal(b1-4)GlcNAc(b1-3)Gal(b1-4)GlcNAc(b1-2)Man(a1-3)[Gal(b1-4)GlcNAc(b1-3)Gal(b1-4)GlcNAc(b1-3)Gal(b1-4)GlcNAc(b1-2)Man(a1-6)]Man(b1-4)GlcNAc(b1-4)[Fuc(a1-6)]GlcNAc. The essentials:
as §1

The target in assay [3] is Gal(b1-4)GlcNAc(b1-3)Gal(b1-4)GlcNAc(b1-3)Gal(b1-4)GlcNAc(b1-2)[Gal(b1-4)GlcNAc(b1-3)Gal(b1-4)GlcNAc(b1-3)Gal(b1-4)GlcNAc(b1-6)]Man(a1-6)[Gal(b1-4)GlcNAc(b1-3)Gal(b1-4)GlcNAc(b1-3)Gal(b1-4)GlcNAc(b1-2)Man(a1-3)]Man(b1-4)GlcNAc(b1-4)[Fuc(a1-6)]GlcNAc. The gist of the method:
as §1

Assay [4] concerns the target Gal(b1-4)GlcNAc(b1-3)Gal(b1-4)GlcNAc(b1-3)Gal(b1-4)GlcNAc(b1-3)Gal(b1-4)GlcNAc(b1-2)Man(a1-3)[Gal(b1-4)GlcNAc(b1-3)Gal(b1-4)GlcNAc(b1-3)Gal(b1-4)GlcNAc(b1-3)Gal(b1-4)GlcNAc(b1-2)Man(a1-6)]Man(b1-4)GlcNAc(b1-4)GlcNAc. The essentials: as §1
The target of assay [5] is Gal(b1-4)GlcNAc(b1-3)Gal(b1-4)GlcNAc(b1-3)Gal(b1-4)GlcNAc(b1-3)Gal(b1-4)GlcNAc(b1-2)Man(a1-3)[Gal(b1-4)GlcNAc(b1-3)Gal(b1-4)GlcNAc(b1-3)Gal(b1-4)GlcNAc(b1-3)Gal(b1-4)GlcNAc(b1-2)Man(a1-6)]Man(b1-4)GlcNAc(b1-4)[Fuc(a1-6)]GlcNAc. The essentials:
as §1

Assay [6] deals with Gal(b1-4)GlcNAc(b1-3)Gal(b1-4)GlcNAc(b1-3)Gal(b1-4)GlcNAc(b1-3)Gal(b1-4)GlcNAc(b1-2)[Gal(b1-4)GlcNAc(b1-3)Gal(b1-4)GlcNAc(b1-3)Gal(b1-4)GlcNAc(b1-3)Gal(b1-4)GlcNAc(b1-6)]Man(a1-6)[Gal(b1-4)GlcNAc(b1-3)Gal(b1-4)GlcNAc(b1-3)Gal(b1-4)GlcNAc(b1-3)Gal(b1-4)GlcNAc(b1-2)Man(a1-3)]Man(b1-4)GlcNAc(b1-4)[Fuc(a1-6)]GlcNAc. The gist of the method: as §1
Assay [7] deals with Gal(b1-4)GlcNAc(b1-3)Gal(b1-4)GlcNAc(b1-3)Gal(b1-4)GlcNAc(b1-3)Gal(b1-4)GlcNAc(b1-3)Gal(b1-4)GlcNAc(b1-2)Man(a1-3)[Gal(b1-4)GlcNAc(b1-3)Gal(b1-4)GlcNAc(b1-3)Gal(b1-4)GlcNAc(b1-3)Gal(b1-4)GlcNAc(b1-3)Gal(b1-4)GlcNAc(b1-2)Man(a1-6)]Man(b1-4)GlcNAc(b1-4)GlcNAc. The essentials: as §1
The target of assay [8] is Gal(b1-4)GlcNAc(b1-3)Gal(b1-4)GlcNAc(b1-3)Gal(b1-4)GlcNAc(b1-3)Gal(b1-4)GlcNAc(b1-3)Gal(b1-4)GlcNAc(b1-2)Man(a1-3)[Gal(b1-4)GlcNAc(b1-3)Gal(b1-4)GlcNAc(b1-3)Gal(b1-4)GlcNAc(b1-3)Gal(b1-4)GlcNAc(b1-3)Gal(b1-4)GlcNAc(b1-2)Man(a1-6)]Man(b1-4)GlcNAc(b1-4)[Fuc(a1-6)]GlcNAc. The gist of the method:
as §1

For assay [9], the target named is Gal(b1-4)GlcNAc(b1-3)Gal(b1-4)GlcNAc(b1-3)Gal(b1-4)GlcNAc(b1-3)Gal(b1-4)GlcNAc(b1-3)Gal(b1-4)GlcNAc(b1-2)[Gal(b1-4)GlcNAc(b1-3)Gal(b1-4)GlcNAc(b1-3)Gal(b1-4)GlcNAc(b1-3)Gal(b1-4)GlcNAc(b1-3)Gal(b1-4)GlcNAc(b1-6)]Man(a1-6)[Gal(b1-4)GlcNAc(b1-3)Gal(b1-4)GlcNAc(b1-3)Gal(b1-4)GlcNAc(b1-3)Gal(b1-4)GlcNAc(b1-3)Gal(b1-4)GlcNAc(b1-2)Man(a1-3)]Man(b1-4)GlcNAc(b1-4)[Fuc(a1-6)]GlcNAc. The gist of the method:
as §1

Assay [10] concerns the target Gal(b1-4)GlcNAc(b1-3)Gal(b1-4)GlcNAc(b1-3)Gal(b1-4)GlcNAc(b1-3)Gal(b1-4)GlcNAc(b1-3)Gal(b1-4)GlcNAc(b1-3)Gal(b1-4)GlcNAc(b1-2)Man(a1-3)[Gal(b1-4)GlcNAc(b1-3)Gal(b1-4)GlcNAc(b1-3)Gal(b1-4)GlcNAc(b1-3)Gal(b1-4)GlcNAc(b1-3)Gal(b1-4)GlcNAc(b1-3)Gal(b1-4)GlcNAc(b1-2)Man(a1-6)]Man(b1-4)GlcNAc(b1-4)GlcNAc. The essentials: as §1
The target in assay [11] is Gal(b1-4)GlcNAc(b1-3)Gal(b1-4)GlcNAc(b1-3)GalNAc. The gist of the method: as §1
Assay [12] concerns the target Gal(b1-4)GlcNAc(b1-3)Gal(b1-4)GlcNAc(b1-3)[Gal(b1-4)GlcNAc(b1-3)Gal(b1-4)GlcNAc(b1-6)]GalNAc. The gist of the method:
as §1

Assay [13] addresses Gal(b1-4)GlcNAc(b1-3)Gal(b1-4)GlcNAc(b1-6)[Gal(b1-3)]GalNAc. The essentials: as §1
Assay [14] concerns the target Gal(b1-4)GlcNAc(b1-3)Gal(b1-4)[Fuc(a1-3)]GlcNAc(b1-3)Gal(b1-4)[Fuc(a1-3)]GlcNAc. The gist of the method: as §1
For assay [15], the target named is Gal(b1-4)GlcNAc(b1-3)GalNAc. The gist of the method:
as §1

For assay [16], the target named is Gal(b1-4)GlcNAc(b1-3)[Fuc(a1-3)GlcNAc(b1-6)]Gal(b1-4)Glc. The essentials: as §1
In assay [17] the target is Gal(b1-4)GlcNAc(b1-3)[Gal(b1-4)GlcNAc(b1-6)]Gal(b1-4)GlcNAc. The gist of the method: as §1
Assay [18] deals with Gal(b1-4)GlcNAc(b1-3)[GlcNAc(b1-6)]Gal(b1-4)GlcNAc. The gist of the method: as §1
For assay [19], the target named is Gal(b1-4)GlcNAc(b1-6)Gal(b1-4)GlcNAc. The gist of the method: as §1

B1: PV12658A-bvu-496-32-496 (Bacteroides vulgatus) (protein)
chain: DLDGAITTPAAVELALNGIYYSLPGNGFNVIFPTVSGSFKAGTMWRQEIVSAGNAVYYSERMLPTLSFSDATEWDADYAVIKNANFLETACNRMSDGEFSGNRRAEVLGEIAYLRALAYFNILVRYCEFWDMNSEYGVVMRNEAPSVSNALKARSSVADSYQYILDQLEIAIEKAPDWKKLSQASKEAAKALKARVLLYAGKYTEAVAAVNDAIDTNSPLPEANYGDVFDKFSTTKEILFARVFDQKDATNTSTRQQCYGNSPTKKQGYWGPTNEYVELVGDDPRADAIFSKVDSLMDSRSSAVAYNLKSVKKLLNDANDMPVIFSRVSELYLIKAEALYRSGASISEAYAPIRKLRERAGAEIILPANNEELETAIFNEWMLELSFENWHEWFAMIRFAGYTEKPDFTRLLALNKTLREALEKEYEKSEAQGDNYYQRIIDRRIDAIPSSEISSNLECKQNPGY
With B1, the “glycan array binding signal (z-score)” value was 3.56 in assay [1]; 0.003 in [2]; 1.29 in [3]; 5.64 in assay [4]; 0.511 in [5]; 0.761 in [6]. The “glycan array binding signal (z-score)” value stood at 1.98 in assay [7]; 2.19 in assay [8]; 1.23 in assay [9]; 0.943 in assay [10]; 3.98 in [11]; 0.866 in [12]. Also, the “glycan array binding signal (z-score)” value in [13] was 0.802; in assay [14], -0.316; in assay [15] it was -0.267; in assay [16] it was -0.264; in assay [17], 0.41; in assay [18], -0.107. In addition, in assay [19], the “glycan array binding signal (z-score)” value amounted to 0.038.

(Values after the supplement of paper PMC8728848.)
